# According to PubChem BioAssay AID504332 (National Center for Advancing Translational Sciences (NCATS), 2011):
# In all, about 350,000 compounds went through this assay and about 31,000 (8.9%) were called active. The inconclusive results got no clear call from the source; some entries with a clear call stand among them for comparison. Calls follow the shape of the dose curve; as a rule, active = well fitted inhibition curve with a large enough effect; inconclusive = small, poorly fitted or top-dose-only effect; inactive = no such curve, though single readings can be large or run the other way. Potencies beside an inconclusive call are fits to weak or partial responses and may not hold up.
# Target: Histone-lysine N-methyltransferase EHMT2 (Homo sapiens) (UniProt Q96KQ7)
# Assay: qHTS Assay for Inhibitors of Histone Lysine Methyltransferase G9a; also: nearly all actives have a fitted effect of over 75% in size
# Details: G9a H3K9 monomethylation, AlphaScreen, 2 h; activity, negative = inhibition: at 59 µM (top of the series) unless noted
# Procedure, shortened: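 Quantitative HTS format: methyltransferase activity on a biotin-tagged H3K9 peptide is measured by AlphaScreen, using a rabbit anti-monomethyl-H3K9 antibody with streptavidin donor and anti-IgG acceptor beads. Final levels are 20 nM enzyme, 500 nM peptide, 20 uM SAM; 2 h RT.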
# % is scaled to controls: 0 for no effect and ±100 for the full control effect; potency is read from the fitted curve at half-maximal effect; tags tell the direction and shape of the fitted curve.
# Sequence of UniProt Q96KQ7 (Q96KQ7 whole entry, looked up): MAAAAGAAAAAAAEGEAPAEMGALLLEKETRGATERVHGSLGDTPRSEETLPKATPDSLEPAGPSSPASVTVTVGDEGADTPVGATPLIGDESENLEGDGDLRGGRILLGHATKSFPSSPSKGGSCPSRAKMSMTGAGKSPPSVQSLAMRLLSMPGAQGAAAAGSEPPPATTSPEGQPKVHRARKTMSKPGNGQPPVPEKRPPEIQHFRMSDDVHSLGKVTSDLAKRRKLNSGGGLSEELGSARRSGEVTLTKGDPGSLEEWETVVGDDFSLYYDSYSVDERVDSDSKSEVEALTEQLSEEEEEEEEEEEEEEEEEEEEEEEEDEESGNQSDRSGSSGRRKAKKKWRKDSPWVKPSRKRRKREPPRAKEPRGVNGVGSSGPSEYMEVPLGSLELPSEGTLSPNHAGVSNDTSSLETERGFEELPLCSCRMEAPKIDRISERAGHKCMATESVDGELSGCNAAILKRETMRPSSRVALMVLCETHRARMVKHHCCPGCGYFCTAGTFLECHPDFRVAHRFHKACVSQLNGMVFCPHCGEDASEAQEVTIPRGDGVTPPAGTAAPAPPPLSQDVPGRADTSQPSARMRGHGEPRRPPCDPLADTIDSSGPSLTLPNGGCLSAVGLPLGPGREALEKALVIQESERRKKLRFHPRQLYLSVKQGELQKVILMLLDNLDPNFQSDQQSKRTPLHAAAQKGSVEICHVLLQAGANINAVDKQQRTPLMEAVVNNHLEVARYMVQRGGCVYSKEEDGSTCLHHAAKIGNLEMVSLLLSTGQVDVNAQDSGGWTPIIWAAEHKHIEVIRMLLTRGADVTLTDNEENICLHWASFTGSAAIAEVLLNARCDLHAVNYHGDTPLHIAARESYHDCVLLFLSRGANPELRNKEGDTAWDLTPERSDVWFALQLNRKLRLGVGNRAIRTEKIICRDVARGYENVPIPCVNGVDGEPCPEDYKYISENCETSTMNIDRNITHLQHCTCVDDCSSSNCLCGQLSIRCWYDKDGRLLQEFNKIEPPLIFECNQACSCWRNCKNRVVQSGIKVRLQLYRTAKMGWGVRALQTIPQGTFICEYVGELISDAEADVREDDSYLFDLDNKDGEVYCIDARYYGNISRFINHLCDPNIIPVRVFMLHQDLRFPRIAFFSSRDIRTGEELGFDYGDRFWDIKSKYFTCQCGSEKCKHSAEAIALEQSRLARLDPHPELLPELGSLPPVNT
Compound,Potency,"activity, negative = inhibition"
CN(CC(=O)Nc1ccc(Cl)cc1)C(=O)c1cccc(S(=O)(=O)N(C)C)c1,"inconclusive: 22.4 µM [inhibitor, single point]",–
Cc1cc(Cl)cc2c(N=Nc3ccccc3C(=O)O)c(O)[nH]c12,"inconclusive: 79.4 µM [inhibitor, single point]",–
C=CCN1C(=O)c2ccc(C(=O)N(CC)CC(=O)Nc3c(F)cccc3F)cc2C1=O,"inconclusive: 79.4 µM [inhibitor, partial curve, poor fit]",–
COc1ccc(C2/C(=C(/O)c3ccc4c(c3)CC(C)O4)C(=O)C(=O)N2CCCN2CCOCC2)cc1 (centres undefined),active: 44.7 µM,–
CC(C)CCN1CCN(Cc2nc3c(s2)CCCC3)CC1CCO (centres undefined),–,inactive: -4.77% [at 102 µM]
COC(=O)c1cccc(CSc2nc(-c3ccccc3)c(C#N)c(=O)[nH]2)c1,"inconclusive: 56.2 µM [inhibitor, partial curve, poor fit]",–
COc1cc([N+](=O)[O-])ccc1N1C(=O)C2C3C=CC(C4CC34)C2C1=O (centres undefined),active: 39.8 µM,–
O=C(Cc1ccc(Br)cc1)NC1CCSC1=O (centres undefined),–,inactive: 27.8%
Cc1ccc(C(=O)/C=C/c2ccc(-c3ccc(C)cc3)o2)cc1,"inconclusive: 3.55 µM [inhibitor, full curve]",–
CC(C)CNc1ncnc2c1nnn2C,"inconclusive: 3.16 µM [inhibitor, partial curve, poor fit]",–
COc1ccc(-n2c(CN3CCN(c4ccccc4OC)CC3)nc3ccc([N+](=O)[O-])cc3c2=O)c(OC)c1,active: 44.7 µM,–
COC(=O)CSc1[nH]c2cc(C)ccc2c1[N+](=O)[O-],"inconclusive: 39.8 µM [inhibitor, partial curve]",–
Cc1cccnc1NC(=S)NC(=O)c1cncc(Br)c1,"inconclusive: 89.1 µM [inhibitor, single point]",–
CCOC(=O)CSc1nc2ccccc2c(=O)[nH]1,"inconclusive: 89.1 µM [inhibitor, partial curve, poor fit]",–
CCOCCCNC(=O)C(c1ccccc1)N(Cc1ccc2c(c1)OCO2)C(=O)CNC(C)=O (centres undefined),"inconclusive: 3.98 µM [inhibitor, full curve]",–
COc1ccc(-c2coc3c(OC)c(OC)cc(O)c3c2=O)cc1,–,inactive: -24.7% [at 2.33 µM]
CNC(=O)Cn1c(=O)c2cccn2c2ccc(F)cc21,–,inactive: -15.7%
CCOC(=O)N1CCN(C(=O)CN(c2ccc(Cl)c(C(F)(F)F)c2)S(C)(=O)=O)CC1,"inconclusive: 89.1 µM [inhibitor, single point]",–
CC(C)c1ccc(C2CC(=O)c3cnc(N4CCc5ccccc5C4)nc3C2)cc1 (centres undefined),–,inactive: 6.96%
